Source: US5538947A, “Growth inhibitory factor” (Takeda Chemical Industries, Ltd., priority 1992, dated 1996)

System: cells prepared from cerebral cortices of neonatal rats
Test: Assay of neural growth inhibitory activity (MAP2 ELISA)
Type: cell-based
Settings: neonatal rat cerebral cortex cells, serum-free MEMN2 with 125 μg/ml Alzheimer's disease brain extract, 5 days at 37° C., anti-MAP2 ELISA; FIG. 6
Method: 1.7×10^4 cells prepared from cerebral cortices of neonatal rats were seeded in a 6 mm microplate coated with gelatin-polyornithine. Each of the peptides obtained in Example 1 was added to serum-free medium MEMN2 (prepared by adding insulin, transferrin, putrescine, progesterone and sodium selenite to Eagle's medium) containing 100 μl of an aqueous solution of 125 μg/ml of Alzheimer's disease brain extract and fed for 5 days at 37° C. in a 5% carbon dioxide gas incubator. After fixing with para-formaldehyde and a solution of 90% methanol and 5% acetic acid, the amount of microtubule-bound protein 2 (MAP2: a protein specifically produced by neural cells) was determined by ELISA using anti-MAP2 antibody (Amersham). On the other hand, as control experiment, the amount of MAP2 was determined in the cultured cells only with Alzheimer's disease brain extract. Inhibitory activity was expressed by the percentage reduction rate (%) of the amount of MAP2.

Sequence | neural growth inhibitory activity (percentage reduction rate of the amount of MAP2)
TCPCPSGGSC TCADSCKCE (TCPCPSGGSCTCADSCKCE) [VG2, peak of the V8 protease digest of TG3; 5th to 23rd residues of GIF] | clearly demonstrated neural growth inhibitory activity
MDPETCPCPSGGSCTCADSCKCEGCK (MDPETCPCPSGGSCTCADSCKCEGCK) [TG3, trypsin-digested fragment of GIF (residues 1-26)] | clearly demonstrated neural growth inhibitory activity
